From PMC4336329 (PLoS ONE, 2015)
In all, about 310,000 compounds went through this assay and about 14,000 (4.5%) showed an effect of 50% or more. The effect is printed as a negative number. The list shows a part of the results.

Molecular target: human ether-à-go-go-related gene (hERG) potassium channel (human, UniProt Q12809)
Experiment: primary screen, population patch clamp on CHO cells stably expressing hERG
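Also: peak tail current of the secondary pulse compared with the same well before compound.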

Chain of human ether-à-go-go-related gene (hERG) potassium channel (Q12809 whole entry, looked up): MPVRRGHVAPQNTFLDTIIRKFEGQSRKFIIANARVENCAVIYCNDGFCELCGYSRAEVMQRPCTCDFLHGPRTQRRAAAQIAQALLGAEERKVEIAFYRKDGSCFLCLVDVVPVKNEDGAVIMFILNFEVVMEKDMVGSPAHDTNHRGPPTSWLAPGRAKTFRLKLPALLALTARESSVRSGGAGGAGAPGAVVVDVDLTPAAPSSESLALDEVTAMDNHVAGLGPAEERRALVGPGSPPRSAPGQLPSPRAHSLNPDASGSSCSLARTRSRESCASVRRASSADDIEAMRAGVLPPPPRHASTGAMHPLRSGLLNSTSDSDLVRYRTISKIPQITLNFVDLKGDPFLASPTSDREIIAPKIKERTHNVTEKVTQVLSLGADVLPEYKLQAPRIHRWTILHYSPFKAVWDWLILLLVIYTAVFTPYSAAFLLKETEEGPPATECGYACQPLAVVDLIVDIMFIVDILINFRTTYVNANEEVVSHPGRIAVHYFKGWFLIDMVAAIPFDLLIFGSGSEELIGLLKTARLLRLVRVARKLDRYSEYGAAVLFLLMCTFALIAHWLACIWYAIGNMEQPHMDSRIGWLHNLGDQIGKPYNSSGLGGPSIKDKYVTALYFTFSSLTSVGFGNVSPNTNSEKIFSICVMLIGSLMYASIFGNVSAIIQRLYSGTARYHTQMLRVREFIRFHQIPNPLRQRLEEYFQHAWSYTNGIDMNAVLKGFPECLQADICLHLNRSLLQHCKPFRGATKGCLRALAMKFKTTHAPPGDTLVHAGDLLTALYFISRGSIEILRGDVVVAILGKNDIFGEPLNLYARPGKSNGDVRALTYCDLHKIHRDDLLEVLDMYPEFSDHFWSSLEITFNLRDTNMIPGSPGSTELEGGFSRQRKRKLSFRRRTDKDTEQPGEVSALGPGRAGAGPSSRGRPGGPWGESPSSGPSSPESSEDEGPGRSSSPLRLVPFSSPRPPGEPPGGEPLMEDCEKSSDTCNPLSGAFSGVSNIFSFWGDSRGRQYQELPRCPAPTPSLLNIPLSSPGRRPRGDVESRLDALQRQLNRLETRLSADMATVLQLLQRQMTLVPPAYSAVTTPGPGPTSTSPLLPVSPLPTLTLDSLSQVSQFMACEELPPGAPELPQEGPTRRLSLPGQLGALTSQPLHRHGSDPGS

Compared with Cc1ccc(Sc2cc(C(=O)NCCCN(C)C)c3ccccc3n2)cc1, Cc1ccc(-c2nn(C)c(=O)c3ccccc23)cc1S(=O)(=O)NCCN(C)C is higher in “hERG current change (%, negative = inhibition) at 10uM” value: -56.5% for the first, 4.35% for the second.

First: O=C(CSc1nnc(Cc2ccccc2)o1)N1CCOCC1
Second: CSCCC(=O)N1CCCC(CO)(CCCc2ccccc2)C1 (stereo not drawn)
The “hERG current change (%, negative = inhibition) at 10uM” value of the first is higher: 0.161% for the first, -8.88% for the second.

First: COc1ccccc1-c1nc(-c2ccccn2)no1
Second: C/C(=N/Nc1nc(-c2ccccc2F)nc2ccccc12)c1ccccc1O
The “hERG current change (%, negative = inhibition) at 10uM” value of the first is higher: 11.4% for the first, 8.64% for the second.

Going from Cc1ccc(NC(=O)CSCc2cc(=O)n3cc(C)sc3n2)cc1 to CCn1c(C)nnc1SCC(=O)Nc1ccc(Cl)cc1, the “hERG current change (%, negative = inhibition) at 10uM” value falls from 15.7% to 10.3%.

Compared with COc1ccccc1NC(=O)NCCN1CCCCC1, O=C1c2ccccc2-c2cccc(C(=O)N3CCCCC3)c21 is higher in “hERG current change (%, negative = inhibition) at 10uM” value: -5.98% for the first, 2.9% for the second.

First: CCOC(=O)C/C(C)=N/NC(=O)COc1ccccc1C
Second: COC(=O)c1ccc(NC(=O)CNc2ccccc2)cc1
The “hERG current change (%, negative = inhibition) at 10uM” value of the first is lower: -2.87% for the first, -1.52% for the second.

Going from CCc1ccc(N=c2c([N+](=O)[O-])nn(-c3ccccc3)n2O)cc1 to O=C(Nc1cccc2ccccc12)c1ccc([N+](=O)[O-])s1, the “hERG current change (%, negative = inhibition) at 10uM” value rises from -16.3% to 8.79%.

First: O=C(N/N=C/c1ccco1)c1cc(Br)ccc1OCc1ccccc1
Second: O=C(O)COc1ccc2oc3ccccc3c2c1
The “hERG current change (%, negative = inhibition) at 10uM” value of the first is lower: 4.01% for the first, 22.8% for the second.

Compared with Cl.NC(=O)c1ccc(OCCC(O)N2CC=C(c3ccc(F)cc3)CC2)cc1 (stereo not drawn), CC(C)(C)OC(=O)N1CCC(CNC(=O)c2ccc(F)cc2)CC1 is higher in “hERG current change (%, negative = inhibition) at 10uM” value: -71.2% for the first, 2.89% for the second.

Compared with Cc1ccc(-n2c(N)c(C(N)=O)sc2=S)cc1, Cc1ccc(CNC(=O)Cn2c(=O)n(-c3ccccc3)c(=O)c3sccc32)cc1 is lower in “hERG current change (%, negative = inhibition) at 10uM” value: 4.74% for the first, 1.3% for the second.

Compared with COC1CCN(Cc2c(C(=O)N3CCN(C4CCCCC4)CC3)nc3ccccn23)CC1, Cn1cc(CN2CCC(C(=O)N3CCCC3)CC2)c(-c2ccccc2F)n1 is lower in “hERG current change (%, negative = inhibition) at 10uM” value: 5.42% for the first, -4.8% for the second.

Going from O=C(Nc1cccc(S(=O)(=O)N2CCCCCC2)c1)c1ccc(=O)[nH]c1 to Cc1ccc(C)c(N2CCN(S(=O)(=O)c3ccc4c(c3)NC(=O)CO4)CC2)c1, the “hERG current change (%, negative = inhibition) at 10uM” value rises from -19.5% to 12.7%.

First: Cc1cc(C2=CC(=O)C[C@H](c3ccc4c(c3)OCO4)C2)ccc1F
Second: O=C(O)/C=C/c1cn(-c2ccccc2)nc1-c1ccc2c(c1)OCCO2
The “hERG current change (%, negative = inhibition) at 10uM” value of the first is lower: 3.08% for the first, 10.1% for the second.

Going from COc1ccc(OC)c(NC(=O)Nc2ccc(O)c3ccccc23)c1 to COc1ccc(-c2nnc(NC(=O)c3cc(Cl)ccc3Cl)o2)cc1, the “hERG current change (%, negative = inhibition) at 10uM” value falls from 15.1% to -8.99%.

First: COc1cc(C(=S)N2CCOCC2)cc(OC)c1OC(=O)c1ccc(C)cc1
Second: COC(=O)c1cccc(NC2CC(=O)N(c3ccc(OC)c(OC)c3)C2=O)c1 (stereo not drawn)
The “hERG current change (%, negative = inhibition) at 10uM” value of the first is lower: -3.8% for the first, 5.1% for the second.

Compared with Cc1ccc(S(=O)(=O)NC(=O)c2ccc(-c3ccc(C)c4ccccc34)o2)cc1, O=C(O)c1ccccc1NC(=O)c1ccccc1-c1ccccc1C(=O)O is higher in “hERG current change (%, negative = inhibition) at 10uM” value: 2.82% for the first, 18.5% for the second.

Going from O=C(Cn1c(=O)sc2ccccc21)OC(CCl)CCl to Nc1cc(=O)[nH]c(=O)n1Cc1ccccc1, the “hERG current change (%, negative = inhibition) at 10uM” value rises from 0.714% to 12.1%.

Going from CC(C)C(NS(=O)(=O)c1cccc2nsnc12)C(=O)N1CCc2ccccc2C1 (stereo not drawn) to CCOC(=O)c1cc(S(=O)(=O)N2CCc3ccccc32)cn1C, the “hERG current change (%, negative = inhibition) at 10uM” value rises from -2.3% to -0.504%.

Compared with O=C(c1ccc2c(c1)[nH]c(=S)n1c3ccccc3nc21)N1CCN(c2ncccn2)CC1, Cc1ccc(C(=O)N2CCC(Cc3ccccc3)CC2)cc1[N+](=O)[O-] is lower in “hERG current change (%, negative = inhibition) at 10uM” value: -2.52% for the first, -63.8% for the second.

Compared with COC(=O)C1Cc2c([nH]c3ccccc23)C(C)N1 (stereo not drawn), Cc1ccccc1C(=O)Nc1nnc(SC(C)C)s1 is higher in “hERG current change (%, negative = inhibition) at 10uM” value: -9.61% for the first, 0.0104% for the second.

First: Cc1ccc(CN2CCN(Cc3cccn3-c3ccccn3)CC2CCO)cc1 (stereo not drawn)
Second: Cc1cccc(NC(=S)NCc2ccccn2)c1
The “hERG current change (%, negative = inhibition) at 10uM” value of the first is lower: -82% for the first, 18.2% for the second.

Compared with CCc1ccccc1N(CC(=O)NCc1ccco1)C(=O)c1snc(C(N)=O)c1N, CCN(CC(=O)Nc1ccccc1C(F)(F)F)C(=O)CN1C(=O)NC(C)(c2ccccc2)C1=O (stereo not drawn) is higher in “hERG current change (%, negative = inhibition) at 10uM” value: -32.1% for the first, 18.6% for the second.

Going from COC(=O)C1CC(c2c(OC)cc(OC)cc2OC)=NO1 (stereo not drawn) to CC1(C)CC(=O)c2cnc(NC(=O)c3ccco3)nc2C1, the “hERG current change (%, negative = inhibition) at 10uM” value rises from 4.02% to 7.03%.

Compared with Cc1cc(=O)[nH]c(CCl)n1, C#CCNc1cc(C)nc2ncnn12 is lower in “hERG current change (%, negative = inhibition) at 10uM” value: 32.7% for the first, 10.3% for the second.

Going from COC(=O)/C=C/C(=O)N1CCN(c2ccccc2)CC1 to CCC(Oc1ccc2ccccc2c1)C(=O)O (stereo not drawn), the “hERG current change (%, negative = inhibition) at 10uM” value rises from -11.2% to 13.8%.

Going from O=C1CC(/C=C/c2cccnc2)=Nc2ccccc2N1 to Clc1ccc(/C=N\Nc2ccccc2)cc1, the “hERG current change (%, negative = inhibition) at 10uM” value falls from 14.1% to 13.8%.

Compared with CC(C)OCCCn1c(=O)c2ccccc2n2c(CCC(=O)NC3CCN(Cc4ccccc4)CC3)nnc12, CC(OC(=O)Cc1ccc(Cl)cc1)C(=O)NCCC1=CCCCC1 (stereo not drawn) is higher in “hERG current change (%, negative = inhibition) at 10uM” value: -51.4% for the first, 1.99% for the second.

Compared with O=C(O)COc1nsnc1N1CCOCC1, CC(=O)OC1C2CCC1C(N1CCCCC1)CC2.Cl (stereo not drawn) is higher in “hERG current change (%, negative = inhibition) at 10uM” value: 10.4% for the first, 16.8% for the second.

Compared with COc1cccc(-n2nc3c(-n4ncc(C#N)c4N)nnc(C)c3c2C)c1, Brc1ccc2ncc(Br)cc2c1 is higher in “hERG current change (%, negative = inhibition) at 10uM” value: -27.7% for the first, 13.1% for the second.

Going from O=C(N/N=C\c1ccc(Cl)s1)c1cccs1 to CCOC(=O)/C(=C/C1=CC(=C/N(C)C)/C(=O)O1)C(C)=O, the “hERG current change (%, negative = inhibition) at 10uM” value falls from 23.2% to 6.52%.
